# Where “and” joins values, the source holds several entries; their conditions need not be identical. Identical values can stand only once. The inconclusive results got no clear call from the source; some entries with a clear call stand among them for comparison. For some of these results: A potency beside an inconclusive call is a rough fit, not a confirmed value. Calls of active or inactive are those of the source. Unless noted, the call rests on the fitted dose curve; in most records, active means well fitted curve in the direction sought with a large enough effect; inconclusive means small, poorly fitted or top-dose-only effect, or another doubt; inactive means no such curve, though single readings can be large; an effect the other way counts as inactive or inconclusive.
# Experiments:
# [1] = Primary qHTS for small molecule stabilizers of the endoplasmic reticulum resident proteome: Secreted ER Calcium Modulated Protein (SERCaMP) assay (AID 1508630); conditions: SH-SY5Y GLuc-SERCaMP (Gaussia luciferase released on ER calcium loss) secretion, thapsigargin, luminescence; series mostly up to 38.4 µM; further: potency means the concentration at half of the fitted maximal effect
# In short: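 The SH-SY5Y reporter protocol was run at 3 concentrations up to 38.3 uM (primary) or 11 concentrations (follow-up): 16 h compound, 100 nM thapsigargin for 4 h, then extracellular luciferase luminescence.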
# [2] = molecular target: Cytochrome P450 2D6 (Homo sapiens) (UniProt P10635); test: Cytochrome P450 family 2 subfamily D member 6 (CYP2D6) small molecule antagonists: luciferase biochemical (cell-free) qHTS assay (AID 1645840; active means well fitted curve in the direction sought with a large enough effect in the repeat runs; inconclusive means weak or mixed curves; inactive means no such curve, though single readings can be large; an effect the other way counts as inactive or inconclusive; further: nearly all actives have a fitted effect of over 55% in size; further: potency means the concentration at half of the fitted maximal effect)
# In short: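 P450-Glo CYP2D6 system: proluciferin substrate converted by enzyme to luciferin, read by luminescence proportional to activity. Enzyme-substrate mix with compound 10 min at room temperature, then NADPH regeneration 1 h before detection reagent.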
# [3] = molecular target: Cytochrome P450 2C9 (Homo sapiens) (UniProt P11712); test: Cytochrome P450 family 2 subfamily C member 9 (CYP2C9) small molecule antagonists: luciferase biochemical (cell-free) qHTS assay (AID 1645842; active means well fitted curve in the direction sought with a large enough effect in the repeat runs; inconclusive means weak or mixed curves; inactive means no such curve, though single readings can be large; an effect the other way counts as inactive or inconclusive; further: nearly all actives have a fitted effect of over 55% in size; further: potency means the concentration at half of the fitted maximal effect)
# In short: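 P450-Glo CYP2C9 system: proluciferin substrate with enzyme in mix containing 0.4% BSA, 10 min at room temperature, then NADPH regeneration solution added and incubated 1 h at 37C. Detection reagent stopped reaction; luminescence read after 20 min as RLU.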
# [4] = Primary qHTS for inhibitors of nuclear receptor binding SET domain protein 2 (NSD2) in an isogenic RCH-ACV NSD2 p.E1099K mutant (9B) (AID 1645876); further: nearly all actives have a fitted effect of over 70% in size; further: potency means the concentration at half of the fitted maximal effect
# [5] = Primary qHTS for inhibitors of nuclear receptor binding SET domain protein 2 (NSD2) in an RCH-ACV wild type WT cells (2C) (AID 1645877); conditions: activity change, negative = cell killing: at 44.9 µM (top of the series) unless noted; further: potency means the concentration at half of the fitted maximal effect; nearly all actives have a fitted effect of over 70% in size
# [6] = molecular target: Cytochrome P450 3A4 (Homo sapiens) (UniProt P08684); test: Cytochrome P450 family 3 subfamily A member 4 (CYP3A4) small molecule antagonists: luciferase qHTS assay (AID 1645841; active means well fitted curve in the direction sought with a large enough effect in the repeat runs; inconclusive means weak or mixed curves; inactive means no such curve, though single readings can be large; an effect the other way counts as inactive or inconclusive; further: potency means the concentration at half of the fitted maximal effect; nearly all actives have a fitted effect of over 45% in size)
# In short: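 Luminescent CYP3A4 activity readout: compounds plus enzyme-substrate mix 10 min at room temperature, reaction started with NADPH regenerating system for 1 h, stopped with detection reagent, read after 20 min. Ketoconazole served as control.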
# [7] = A High-Content qHTS Against Drug Library for the Identification of Small Molecules that Inhibit DYT1 Early Onset Primary Dystonia-Associated Cell Pathology (AID 1645839; calls by dose curve; further: potency means the concentration at half of the fitted maximal effect)
# In short: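 High-content imaging quantified EGFP-TorsinA mislocalization in HEK293-derived cells inducibly expressing DYT1 mutant torsinA, after 48 h exposure to compound given together with tetracycline induction. Cell count served as a toxicity channel alongside %pathology.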
# [8] = molecular target: Papain (Carica papaya) (UniProt P00784); test: Primary qHTS assay for inhibitors of the protease papain (AID 1645873);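 further: papain turnover of Z-FR-AMC read as the AMC fluorescence gain over 10 min; potency means the concentration at half of the fitted maximal effect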
# [9] = NCATS anti-infectives library activity on HEK293 viability as a counter-qHTS vs the C. elegans viability qHTS (AID 1745854)
# In short: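 Cytotoxicity counter-screen to a worm viability qHTS: CellTiter-Glo luminescence read 10 min after reagent addition. Compounds (final up to 41.7 uM, a 1:5 dilution series) incubated 24 hr at 37C with 1,500 HEK293 cells per well; digitonin control.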
# [10] = molecular target: N-terminal Xaa-Pro-Lys N-methyltransferase 1 (Homo sapiens) (UniProt Q9BV86); test: Confirmatory qHTS for Inhibitors of N-terminal methyltransferase 1 (NTMT1): MTaseGlo Assay (AID 1645874);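 further: luminescence from SAH made as NTMT1 methylates SPKRIA peptide using SAM; nearly all actives have a fitted effect of over 65% in size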
# In short: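 Room-temperature NTMT1 reaction, 30 min, with 100 uM SAM and 1 uM SPKRIA substrate; enzyme 125 nM. Read-out: MTase-Glo luminescence, normalized to no-enzyme and DMSO controls.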
# Tags describe the fitted curve by direction and shape.
# Chain of UniProt P11712 (P11712 whole entry, looked up): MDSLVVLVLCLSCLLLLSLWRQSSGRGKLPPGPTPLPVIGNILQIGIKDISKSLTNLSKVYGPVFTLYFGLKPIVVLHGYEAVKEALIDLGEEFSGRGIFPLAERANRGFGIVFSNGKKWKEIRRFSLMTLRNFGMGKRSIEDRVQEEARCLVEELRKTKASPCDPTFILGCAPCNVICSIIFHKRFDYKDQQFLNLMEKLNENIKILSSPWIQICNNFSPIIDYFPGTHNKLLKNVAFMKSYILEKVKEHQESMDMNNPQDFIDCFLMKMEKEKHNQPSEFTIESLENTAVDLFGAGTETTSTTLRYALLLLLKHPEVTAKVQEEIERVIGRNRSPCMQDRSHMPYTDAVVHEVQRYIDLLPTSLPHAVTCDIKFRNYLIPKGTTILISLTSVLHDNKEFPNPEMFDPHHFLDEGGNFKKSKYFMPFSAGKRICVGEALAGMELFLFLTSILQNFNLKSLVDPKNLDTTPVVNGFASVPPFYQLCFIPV
# Chain of UniProt P10635 (P10635 whole entry, looked up): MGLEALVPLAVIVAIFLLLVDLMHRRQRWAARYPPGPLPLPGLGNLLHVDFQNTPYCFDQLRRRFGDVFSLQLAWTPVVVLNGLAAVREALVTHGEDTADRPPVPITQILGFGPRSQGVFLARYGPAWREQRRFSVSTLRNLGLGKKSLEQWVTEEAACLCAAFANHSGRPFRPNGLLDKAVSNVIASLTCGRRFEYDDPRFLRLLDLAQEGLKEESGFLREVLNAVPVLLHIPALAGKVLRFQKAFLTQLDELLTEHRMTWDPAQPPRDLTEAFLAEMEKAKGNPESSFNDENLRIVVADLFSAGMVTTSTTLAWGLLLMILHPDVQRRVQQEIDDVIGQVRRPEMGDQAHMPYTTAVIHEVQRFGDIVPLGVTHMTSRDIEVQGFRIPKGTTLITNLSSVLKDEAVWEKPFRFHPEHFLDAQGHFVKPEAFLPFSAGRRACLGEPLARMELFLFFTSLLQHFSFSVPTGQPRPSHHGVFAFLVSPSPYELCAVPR
# Chain of UniProt P08684 (P08684 whole entry, looked up): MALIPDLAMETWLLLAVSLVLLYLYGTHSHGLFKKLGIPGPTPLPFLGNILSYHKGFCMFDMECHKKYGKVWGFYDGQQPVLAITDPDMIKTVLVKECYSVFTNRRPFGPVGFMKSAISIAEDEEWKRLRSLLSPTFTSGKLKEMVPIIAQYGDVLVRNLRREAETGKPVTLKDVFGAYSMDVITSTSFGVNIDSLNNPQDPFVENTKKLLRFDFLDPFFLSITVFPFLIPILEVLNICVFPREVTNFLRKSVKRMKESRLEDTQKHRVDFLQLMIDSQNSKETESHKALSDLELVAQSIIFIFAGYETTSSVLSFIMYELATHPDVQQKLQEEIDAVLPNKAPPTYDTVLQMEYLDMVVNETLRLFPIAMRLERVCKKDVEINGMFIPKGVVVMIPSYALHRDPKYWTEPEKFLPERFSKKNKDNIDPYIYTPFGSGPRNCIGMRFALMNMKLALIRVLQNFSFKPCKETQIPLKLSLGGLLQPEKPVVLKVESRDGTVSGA
# Chain of UniProt Q9BV86 (Q9BV86 whole entry, looked up): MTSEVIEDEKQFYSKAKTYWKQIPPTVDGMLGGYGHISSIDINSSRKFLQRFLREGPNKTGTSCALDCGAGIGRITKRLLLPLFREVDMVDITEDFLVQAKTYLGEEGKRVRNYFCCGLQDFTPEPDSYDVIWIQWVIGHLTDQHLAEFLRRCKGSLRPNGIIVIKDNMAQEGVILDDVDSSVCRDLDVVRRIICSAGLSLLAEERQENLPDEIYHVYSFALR
# Chain of UniProt P00784 (P00784 whole entry, looked up): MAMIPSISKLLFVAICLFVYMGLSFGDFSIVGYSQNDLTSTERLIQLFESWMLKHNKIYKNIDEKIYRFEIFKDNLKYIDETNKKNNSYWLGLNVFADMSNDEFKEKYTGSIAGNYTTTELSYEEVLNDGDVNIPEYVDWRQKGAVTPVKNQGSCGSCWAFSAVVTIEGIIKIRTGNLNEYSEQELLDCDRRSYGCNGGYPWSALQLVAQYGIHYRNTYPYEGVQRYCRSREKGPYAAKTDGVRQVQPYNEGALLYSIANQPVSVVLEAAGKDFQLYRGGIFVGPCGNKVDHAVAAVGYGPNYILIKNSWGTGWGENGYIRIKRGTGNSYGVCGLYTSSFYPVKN
smiles,measurement,setting,value
C#C[C@]1(O)CC[C@H]2[C@@H]3[C@H](C)CC4=C(CCC(=O)C4)[C@H]3CC[C@@]21C,Potency,[1],inactive
same,Potency,[2],"inconclusive: 38.9 µM [inhibitor, single point]"
same,Potency,[3],"inconclusive: 21.9 µM [inhibitor, single point]"
same,Potency,[4],"inconclusive: 18.6 µM [inhibitor, partial curve]"
same,Potency,[5],"inconclusive: 20.9 µM [inhibitor, partial curve, poor fit]"
CCOC(=O)OC(C)OC1=C(C(=O)Nc2ccccn2)N(C)S(=O)(=O)c2ccccc21 (centres undefined),Potency,[1],"inconclusive: 28.2 µM [inhibitor, single point]"
same,Potency,[2],inactive
same,Potency,[3],"inconclusive: 38.9 µM [inhibitor, single point]"
same,Potency,[4],inactive
CC[C@@]1(c2ccccc2)NC(=O)N(C)C1=O,Potency,[1],"inconclusive: 25.1 µM [inhibitor, single point]"
same,Potency,[6],"inconclusive: 38.9 µM [falling, partial curve, poor fit]"
Nc1ccc(C(=O)NCC(=O)O)cc1,Potency,[1],"inconclusive: 28.2 µM [inhibitor, single point]"
same,Potency,[2],inactive
CCN(CC)CCNC(=O)c1c(C)[nH]c(/C=C2\C(=O)Nc3ccc(F)cc32)c1C,Potency,[1],"inconclusive: 28.2 µM [inhibitor, single point]"
same,Potency,[7],"inconclusive: 15.8 µM [inhibitor, partial curve, poor fit]"
same,Potency,[8],"inconclusive: 1.58 µM [inhibitor, full curve]"
CN(C)/N=N/c1nc[nH]c1C(N)=O,Potency,[1],inactive
same,Potency,[2],"inconclusive: 21.9 µM [inhibitor, single point]"
same,Potency,[4],inactive
O=C(O)c1ccc(Nc2ncc3c(n2)-c2ccc(Cl)cc2C(c2c(F)cccc2F)=NC3)cc1,Potency,[1],inactive
same,Potency,[2],"inconclusive: 21.3 µM [inhibitor, single point]"
CCN[C@H]1C[C@H](C)S(=O)(=O)c2sc(S(N)(=O)=O)cc21,Potency,[1],"inconclusive: 29.8 µM [inhibitor, single point]"
same,Potency,[2],inactive
same,Potency,[9],inactive
CNCCC(Oc1ccccc1OC)c1ccccc1 (centres undefined),Potency,[1],"inconclusive: 25.1 µM [inhibitor, single point] and inconclusive: 28.2 µM [inhibitor, single point]"
same,Potency,[7],"inconclusive: 10 µM [inhibitor, partial curve, poor fit]"
same,Potency,[4],"inconclusive: 26.6 µM [inhibitor, single point]"
same,Potency,[5],"inconclusive: 29.9 µM [inhibitor, single point]"
Clc1ccc(Nc2nnc(Cc3ccncc3)c3ccccc23)cc1,Potency,[1],"inactive and inconclusive: 12.6 µM [inhibitor, single point]"
same,Potency,[2],active: 0.0174 µM
same,Potency,[3],active: 0.049 µM
same,Potency,[10],inactive
same,Potency,[4],"inconclusive: 16.3 µM [inhibitor, partial curve]"
same,Potency,[5],"inconclusive: 11.5 µM [inhibitor, partial curve, poor fit]"
COc1cc(C=C2CCC/C(=C\c3ccc(O)c(OC)c3)C2=O)ccc1O,Potency,[1],"inconclusive: 20 µM [inhibitor, single point]"
same,Potency,[2],"inconclusive: 38.9 µM [inhibitor, single point]"
same,Potency,[3],"inconclusive: 38.9 µM [inhibitor, single point]"
COc1cccc(CCc2ccccc2OCC(CN(C)C)OC(=O)CCC(=O)O)c1 (centres undefined),Potency,[1],"inconclusive: 22.4 µM [inhibitor, single point]"
same,Potency,[7],"inconclusive: 10 µM [inhibitor, partial curve, poor fit]"
same,Potency,[3],inactive
same,Potency,[4],"inconclusive: 29.9 µM [inhibitor, single point]"
CC(C)CN(C[C@@H](O)[C@H](Cc1ccccc1)NC(=O)O[C@H]1CO[C@H]2OCC[C@H]21)S(=O)(=O)c1ccc(N)cc1,Potency,[1],inactive
same,Potency,[2],"inconclusive: 26.8 µM [inhibitor, single point]"
Oc1ccc(C(O)CNCCCCCCNCC(O)c2ccc(O)c(O)c2)cc1O (centres undefined),Potency,[1],"inconclusive: 31.6 µM [inhibitor, partial curve, poor fit]"
same,Potency,[6],"inconclusive: 0.977 µM [falling, single point]"
CCn1c(-c2nonc2N)nc2cncc(CNC3CCNCC3)c21,Potency,[1],inactive
same,Potency,[2],"inconclusive: 37.9 µM [inhibitor, partial curve, poor fit]"
same,Potency,[4],"inconclusive: 18.6 µM [inhibitor, partial curve]"
same,Potency,[5],"active: 11.5 µM and inconclusive: 14.8 µM [inhibitor, partial curve]"

# Reference: PubChem BioAssay (NCATS)
